Measurements: patent US20100056627A1, “PHARMACEUTICAL COMPOSITIONS OF ALKYL GALLATES” (priority 2006, published 2010)

Tested on: influenza virus A/Aichi (H3N2)
Assay: Virucidal activity against influenza virus A/Aichi (H3N2) (Table 16)
Conditions: absence of J1816

CCCCCCCCOC(=O)c1cc(O)c(O)c(O)c1 [octyl gallate]
octyl gallate concentration at which influenza virus completely lost the infectivity to cells: 60 mg/L
